# About 5,000 (1.2%) of roughly 410,000 compounds were called active. Inconclusive means that the source gave no clear call. Such entries were picked first, then a sample of the others. The call rests on the fitted dose curve; in most records, active means well fitted inhibition curve with a large enough effect; inconclusive means small, poorly fitted or top-dose-only effect; inactive means no such curve, though single readings can be large or run the other way. Where the call is inconclusive, the potency comes from a doubtful curve fit.
# Assay: qHTS for Inhibitors of TGF-b; further: nearly all actives have a fitted effect of over 65% in size
# Settings: HepG2 CAGA-GFP TGF-b/SMAD3 reporter, GFP fluorescence, 18 h, TGF-beta stimulated, 500 pg/mL final; series mostly up to 46.1 µM
# Procedure, shortened: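 GFP signal (ex488/em500-530) from TGF-beta-stimulated HEPG2 CAGA-GFP cells, 500 pg/mL final, 18 h at 37 degrees C in DMEM plus 1% FBS, normalized to unstimulated and DMSO-stimulated controls.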
# Potency means the concentration at half of the fitted maximal effect; tags describe the fitted curve by direction and shape.
row,Compound,Potency
1,O=[N+]([O-])c1ccc(/C=C/c2nc3ccc([N+](=O)[O-])cc3[nH]2)cc1,"inconclusive: 6.31 µM [inhibitor, single point]"
2,CCOc1ccc(NC(=O)CC2C(=O)N(CC)C(=S)N2CCN2CCOCC2)cc1 (configuration not stated),inactive
3,CC1CN(C)CCC1OC(=O)c1ccccc1 (configuration not stated),inactive
4,O=C(NCc1ccccc1Cl)c1cnccn1,"inconclusive: 5.62 µM [inhibitor, single point]"
5,CCOC(=O)N1CCN(c2ccc(S(=O)(=O)N3CCOCC3)cn2)CC1,inactive
6,CSc1ccc(CCNC(=O)c2ccc(-n3c(C)cc4c3CCCC4)cc2)cc1,"inconclusive: 15.8 µM [inhibitor, single point]"
7,CCCNc1nc(N2CCCC2)nc(N2CCCC2)n1,inactive
8,CCCS(=O)(=O)N1CCN(Cc2c[nH]c3ccccc23)CC1,inactive
9,CC(C)(C)NS(=O)(=O)c1ccc(NC(=S)NC(=O)C2CC2)cc1,"inconclusive: 7.94 µM [inhibitor, partial curve]"
10,Cn1c(=O)c2c(nc(N3CCNCC3)n2Cc2cccc3ccccc23)n(C)c1=O,inactive
11,COc1ccc2c(c1)c(C(=O)N/N=C/c1cn(C)c3ccccc13)c(C)n2C,"inconclusive: 14.1 µM [inhibitor, single point]"
12,O=S(=O)(O)c1cc2oc(-c3ccccc3)nc2c2ccccc12,"inconclusive: 6.31 µM [inhibitor, single point]"
13,c1ccc(COc2ncnc3c2ncn3CCCN2CCN(c3ccccn3)CC2)cc1,"inconclusive: 35.5 µM [inhibitor, single point]"
14,COc1ccc(/C=C/c2nc(C#N)c(N3CCC(C)CC3)o2)cc1OC,"inconclusive: 20 µM [inhibitor, single point]"
15,Cn1nc(C(F)(F)F)c(-c2cccc(C(F)(F)F)c2)c1NC(=O)Nc1ccc(F)cc1,inactive
16,Cn1c(NC(=O)c2ccco2)c(-c2ccccc2Cl)c(=O)c2ccccc21,"inconclusive: 35.5 µM [inhibitor, single point]"
17,O=C(c1cc(COc2cccc(C(F)(F)F)c2)on1)N1CCc2ccccc2C1,"inconclusive: 22.4 µM [inhibitor, partial curve, poor fit]"
18,Cc1ccc(O)c(/C=N/NC(=O)Cc2ccc(Cl)cc2)c1,"inconclusive: 3.98 µM [inhibitor, full curve, poor fit]"
19,CCN(CC)CC#CCOC(c1ccccc1)c1ccccc1,"inconclusive: 10 µM [inhibitor, partial curve]"
20,O=C(Nc1nc(-c2ccccn2)cs1)c1cc(Cl)ccc1[N+](=O)[O-],active: 11.2 µM
21,NC(c1csc(Nc2cc(NCCCO)ncn2)n1)c1ccccc1Cl (configuration not stated),"inconclusive: 10 µM [inhibitor, partial curve, poor fit]"
22,O=C(OCc1cc(=O)n2nc(-c3cccs3)sc2n1)c1ccc(F)cc1,inactive
23,N=c1c(C(=O)NCc2ccccc2)cc2c(=O)n3ccccc3nc2n1Cc1ccco1,"inconclusive: 22.4 µM [inhibitor, single point]"
24,O=C(Nc1ccc(F)cc1F)c1sccc1SCc1cccc(C(F)(F)F)c1,"inconclusive: 15.8 µM [inhibitor, single point]"

row,Compound,Potency
1,CSc1nc(N(C)NC(=O)c2ccc(F)cc2)c2ccccc2n1,"inconclusive: 14.1 µM [inhibitor, single point]"
2,O=C(Cc1nn[nH]n1)Nc1cc(Cl)cc(Cl)c1,inactive
3,CC(C)c1cc(C(=O)OCC(=O)NC(=O)NCc2ccco2)c(O)c(C(C)C)c1,"inconclusive: 35.5 µM [inhibitor, single point]"
4,CC(C)(C)c1ccc(OCCC(=O)OCC(=O)N2c3ccccc3NC(=O)C2(C)C)cc1,inactive
5,Fc1ccc(N2CCN(c3nc(CN4CCOCC4)nc4scc(-c5ccccc5)c34)CC2)cc1,"inconclusive: 35.5 µM [inhibitor, single point]"
6,Cc1nc(N2CCN(Cc3ccc4c(c3)OCO4)CC2)c2cc(-c3ccccc3)sc2n1,"inconclusive: 17.8 µM [inhibitor, single point]"
7,CCOC(=O)c1c(NCC(C)C)c2ccccc2[nH]c1=O,"inconclusive: 35.5 µM [inhibitor, single point]"
8,Cc1cc(C(=O)N2CCN(C(c3ccccc3)c3ccccc3)CC2)on1,"inconclusive: 35.5 µM [inhibitor, single point]"
9,CCc1ccc2c(c1)NC(c1cccnc1)=NC(c1ccc(C(C)(C)C)cc1)=N2,"inconclusive: 31.6 µM [inhibitor, single point]"
10,Cc1cccc(-c2nc(CSCC(=O)N3CCN(c4cccc(C)c4C)CC3)c(C)o2)c1,"inconclusive: 14.1 µM [inhibitor, single point]"
11,O=C(CSc1nc(-c2cccs2)nc2cc(=O)[nH]n12)Nc1ccccc1Cl,inactive
12,Cc1nc2ccc(NS(=O)(=O)c3ccc(Br)cc3)cc2s1,inactive
13,O=C(NCCn1cc(SCc2ccccc2)c2ccccc21)c1ccccc1F,"inconclusive: 35.5 µM [inhibitor, single point]"
14,COc1ccc(/C=C/C(=O)NCC(=O)N/N=C(/CCC(=O)O)c2ccccc2)cc1,inactive
15,Cc1cc(Cl)ccc1C(=O)C1CCCN(C(=O)c2cccc(N3CCCC3=O)c2)C1 (configuration not stated),inactive
16,COc1ccc(S(=O)(=O)N2CCCC(C(=O)NCc3cccnc3)C2)cc1 (configuration not stated),inactive
17,CSc1ccc(CCNC(=O)c2ccc(CS(=O)Cc3ccc(Cl)cc3)o2)cc1 (configuration not stated),"inconclusive: 11.2 µM [inhibitor, partial curve, poor fit]"
18,O=C(COCc1cc(-c2ccc3c(c2)OCO3)on1)NCc1ccc(F)cc1,inactive
19,Cc1[nH]n(-c2ccccc2)c(=O)c1/C=N/NC(=O)c1cccc([N+](=O)[O-])c1,"inconclusive: 22.4 µM [inhibitor, single point]"
20,Cc1ccc(NCc2nnc(SCC(=O)Nc3ncc(C)s3)n2Cc2ccco2)c(C)c1,"inconclusive: 12.6 µM [inhibitor, partial curve, poor fit]"
21,CN(C)c1ccc(/C=C/c2ccnc3ccc(Cl)cc23)cc1,"inconclusive: 17.8 µM [inhibitor, single point]"
22,COCc1cc(=O)[nH]c(Nc2nc(C)c3ccccc3n2)n1,inactive
23,CSc1nc2c([nH]c3ccccc32)c(=O)n1-c1ccc(C)cc1,inactive
24,CC(=O)Nc1ccc(S(=O)(=O)N2CCN(CC3CC4C=CC3C4)CC2)cc1 (configuration not stated),"inconclusive: 35.5 µM [inhibitor, single point]"

row,Compound,Potency
1,CCOc1ccc(CNc2ncc(-c3ccccc3)n2C)cc1,inactive
2,CCCN1CC(=O)N2C(c3cccc(OC)c3OC)c3[nH]c4ccccc4c3C[C@H]2C1=O (some centres not stated),"inconclusive: 14.1 µM [inhibitor, single point]"
3,COc1ccc(-c2nc(CS(=O)CC(=O)NCCC3=CCCCC3)c(C)o2)cc1 (configuration not stated),"inconclusive: 14.1 µM [inhibitor, single point]"
4,CC1CCCN(CCCNC(=O)c2ccc3c(c2)N(Cc2ccc(F)cc2)C(=O)c2ccccc2S3=O)C1 (configuration not stated),"inconclusive: 25.1 µM [inhibitor, single point]"
5,CCOC(=O)NC(=O)CSc1nnc(C)s1,"inconclusive: 3.98 µM [inhibitor, single point]"
6,O=S1(=O)CCOC[C@H](CC2CCCCC2)N1Cc1ccccc1,"inconclusive: 35.5 µM [inhibitor, single point]"
7,CCOC(=O)c1cnc2c(OC)cccc2c1Nc1ccc2c(c1)OCCO2,inactive
8,O=C(CN1C2CCCC1CC(NC(=O)C1CCCCC1)C2)Nc1ccccc1C(F)(F)F (configuration not stated),"inconclusive: 3.55 µM [inhibitor, full curve]"
9,CC(=O)c1ccc(-c2ccc(-c3cc(=O)oc4c(C(C)C)ccc(C)c34)cc2)cc1,inactive
10,Oc1cccc(C(Nc2nccs2)c2ccc3cccnc3c2O)c1 (configuration not stated),active: 14.1 µM
11,Cc1cccc(C)c1OCC(=O)NCc1nnc(SCC(=O)NC2CCCCC2C)n1C (configuration not stated),inactive
12,CCOC(=O)C1CCCN(C(=O)Cn2ncc3c([nH]c4ccc(C)cc43)c2=O)C1 (configuration not stated),inactive
13,COc1ccc(C2=NCCn3nc4cc(OC)ccc4c32)cc1,"inconclusive: 14.1 µM [inhibitor, single point]"
14,CCOc1ccc(-c2cc(C(=O)NCc3ccc(C)cc3)c3ccccc3n2)cc1,"inconclusive: 0.708 µM [inhibitor, partial curve, poor fit]"
15,Cc1cccc(N2CC(C(=O)NCC3COc4ccccc4O3)CC2=O)c1C (configuration not stated),inactive
16,Clc1ccc(/C=C/c2ccc3ccccc3n2)cc1Cl,"inconclusive: 35.5 µM [inhibitor, single point]"
17,Cc1[nH]c2ccc(C(=O)OC(C)C(=O)N(C)C3CCCCC3)cc2c1C (configuration not stated),inactive
18,Cc1ccc([C@H]2C[C@@H](O)[C@H](n3cc(C4CC4)nn3)CN2C(=O)c2cccs2)cc1,inactive
19,CCOC(=O)N1CCN(c2ccncc2S(=O)(=O)N2CCCCC2)CC1,inactive
20,Cc1ccc(NC(=O)c2cc(N3C(=O)CCC3=O)ccc2N2CCOCC2)cc1,inactive
21,Cc1cccc(Nc2nnc(SCC(=O)Nc3cccnc3Cl)s2)c1,inactive
22,COc1cc(OC)c2c(-c3cccc(-c4ccc(CO)cc4)c3)cc(=O)oc2c1,active: 5.01 µM
23,Cc1ccc(-c2cc3nc(-c4ccccc4)cc(N4CCC5(CC4)OCCO5)n3n2)cc1,"inconclusive: 3.16 µM [inhibitor, partial curve, poor fit]"
24,C#CCOCCOCCOCCNc1nc(N2CCN(C(=O)CCCCCCCCCCNC(=O)[C@H](CCCCN)n3cc(CCCC(=O)O)nn3)CC2)nc(N2CCN(C(=O)CCCCCCCCCCNC(=O)[C@H](CCCN=C(N)N)n3cc(C[C@@H](C)CC)nn3)CC2)n1,"inconclusive: 35.5 µM [inhibitor, single point]"
